The supplement of paper PMC3334620
Whole data set: some 33,000 sequences, median “E-score (-0.5 to 0.5)” near -0.036, cut for the highest 2% near 0.37. Some of the results follow.

Each sequence was assayed against T1, Yer064c (UniProt P40041) (assay: PBM E-score (8-mer binding enrichment) (E-score (-0.5 to 0.5)); higher = stronger / more preferred TF binding; most listed sequences are background and not binding sites). Conditions: protein concentration: 200 nM; construct: GST-full length.
T1 sequence: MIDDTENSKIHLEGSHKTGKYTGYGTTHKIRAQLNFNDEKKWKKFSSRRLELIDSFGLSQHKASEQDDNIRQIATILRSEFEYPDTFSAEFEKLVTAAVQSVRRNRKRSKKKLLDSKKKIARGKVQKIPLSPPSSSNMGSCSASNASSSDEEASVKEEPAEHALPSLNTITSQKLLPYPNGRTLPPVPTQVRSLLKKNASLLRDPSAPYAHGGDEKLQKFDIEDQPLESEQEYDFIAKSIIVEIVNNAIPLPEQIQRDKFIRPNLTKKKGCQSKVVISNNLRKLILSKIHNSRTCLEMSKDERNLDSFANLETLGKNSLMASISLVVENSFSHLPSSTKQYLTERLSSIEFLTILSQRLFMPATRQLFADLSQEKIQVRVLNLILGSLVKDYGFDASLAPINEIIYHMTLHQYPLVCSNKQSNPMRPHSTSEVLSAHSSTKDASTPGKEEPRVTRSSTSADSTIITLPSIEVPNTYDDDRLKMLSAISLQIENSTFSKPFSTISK
Description: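 Universal 'all 10-mer' protein binding microarrays (Agilent AMADID 015681) probed with GST-tagged S. cerevisiae TFs (full-length or DBD) made by in vitro transcription/translation (PURExpress), about 100-200 nM. Bound TF was detected with fluorescent anti-GST. Each ungapped 8-mer (which stands for itself and its reverse complement) is scored by the PBM enrichment score (E-score), a modified Wilcoxon-Mann-Whitney statistic from -0.5 to +0.5, computed with the Universal PBM Analysis Suite. Scale: above 0.35 generally sequence-specific binding.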

| Sequence | PBM E-score |
| --- | --- |
| TAGTTCAA | 0.0501 |
| CCTATACG | -0.045 |
| AGTGGTCG | 0.0664 |
| GGAGTCCC | 0.189 |
| AACTCACG | 0.211 |
| TAGTGAGA | 0.103 |
| CTGTGGCA | 0.0335 |
| TAGATCCA | -0.0329 |
| GGGGCCGA | -0.208 |
| ACTATCAC | 0.148 |
| AAGGTACT | 0.0431 |
| TCGCCACA | -0.0758 |
| CGTGATTC | 0.418 |
| ACGGGGGC | -0.231 |
| CCTTTGAA | 0.0176 |
| CATAGTAA | 0.212 |
| ACTCCCCT | 0.136 |
| CGCCACAA | -0.155 |
| GATCCTAC | -0.193 |
| CAAAGTGC | 0.0793 |
| AGGTGTAA | -0.0357 |
| CGCTGGTC | -0.183 |

| Sequence | PBM E-score |
| --- | --- |
| ATCTCTGG | -0.143 |
| CCAGACAG | -0.27 |
| TGGTGACA | -0.0923 |
| ATCGCGAT | 0.115 |
| ACTCGTAA | 0.302 |
| CCTGTTAG | -0.00747 |
| ATCTGGCG | 0.149 |
| CCAACAGC | -0.115 |
| GAGGCGGA | -0.0783 |
| AAGTACCC | -0.0413 |
| CATATATC | -0.0369 |
| GCCCACGA | -0.051 |
| AATACCCG | 0.033 |
| ATCTTCGA | 0.074 |
| CTGGCAAA | -0.0477 |
| GTGCGATA | 0.0394 |
| TCCTCCAA | -0.0575 |
| CTGAACTC | 0.073 |
| GAGTGTGC | 0.0122 |
| ATGACTGC | 0.467 |
| ACTCCAAT | 0.238 |
| GCGTGAAA | -0.106 |

| Sequence | PBM E-score |
| --- | --- |
| ACTATGTA | 0.112 |
| ATGACTTG | 0.435 |
| ACAACGCC | -0.2 |
| TCAATAGA | 0.22 |
| CCCCAAGC | -0.052 |
| CGGCCGAG | -0.119 |
| GAGAATGC | -0.313 |
| CCTAGGGA | -0.0279 |
| CACAATTC | 0.00015 |
| GAGCGCCC | -0.263 |
| TACATAAA | 0.0156 |
| AGCGAGTC | 0.405 |
| AGTGCAAG | -0.0228 |
| ATGGCCTC | -0.249 |
| AACCGAGC | -0.162 |
| GTACGGTA | -0.147 |
| GGCAGGAA | -0.219 |
| ATCCGAAA | -0.0225 |
| ACCAAGAC | 0.00504 |
| ACTGGTGC | -0.164 |
| GAGGCGGC | -0.311 |
| GTAGGGAC | 0.0286 |

| Sequence | PBM E-score |
| --- | --- |
| TAGCCTAA | -0.0706 |
| CATATGAG | 0.223 |
| AGCTATAT | -0.00349 |
| CGCTGAAA | -0.134 |
| CCCTTCCC | -0.0101 |
| GGGCGAGA | -0.232 |
| TCAATTCA | 0.118 |
| GCCTCCTA | -0.282 |
| CTCTTCGA | 0.0284 |
| CCGCGAGG | -0.0381 |
| AGCGGACG | -0.262 |
| AGTCTCCC | 0.382 |
| TGGGACCA | -0.183 |
| AGAGCCAA | 0.0743 |
| AAAAAACC | -0.0361 |
| GCTGGACA | -0.0194 |
| CTCCATAA | -0.0232 |
| CTAAGACC | 0.115 |
| AAGTGCCG | -0.182 |
| GCGTGCAA | -0.184 |
